Results as given in the supplement of paper PMC10338343.
± gives the standard deviation. Over roughly 3,700 sequences, “pre-steady-state target cleavage rate” has its median near 0.02; the highest 2% begin near 0.23. This is a selection; strong and weak results do not stand in their true shares.

tested on: MILI (PIWIL2) piRISC loaded with Kctd7 piRNA (26 nt); experiment: pre-steady-state target cleavage rate (min^-1); MIWI and MILI are mouse PIWI proteins and EfPiwi is from a freshwater sponge; tags in brackets are library labels; higher = faster piRNA-guided slicing of the target; conditions: guide: Kctd7 piRNA 5'p-UGUUAAUCUCUCAGAGAAGGUGACAG; auxiliary factor: 500 nM mouse GTSF1
Outline: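 Cleave-'n-Seq used a transcribed, DNA-blocked target RNA library at 0.1 nM and active affinity-purified piRISC with one synthetic guide at 1 nM, with or without 500 nM GTSF1 partner protein, in HEPES–potassium acetate buffer at 33 °C for 0–8 or 0–960 min. Uncleaved targets were sequenced and normalised to depth and to weakly complementary targets, and three trials were pooled with k3 capped at 0.0001 min^-1. The pre-steady-state cleavage rate was estimated by a burst-and-steady-state fit.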

Sequence | pre-steady-state target cleavage rate
UAGUCUGUCACCUACUCUGAGACAUUAACA | 0.027 ± 0.0046
UAGUCUGUCACCUUCUGAGAGAGAUUAAGA | 0.0268 ± 0.0096
UAGUGUGUCUCCAUCUCUGAGAGAUUAACA | 0.0826 ± 0.012
UAGUGACAGUGGUUCUCUGGGAGAUUAACA | 0.00577 ± 0.0014
UAGUGACUCAGGUUCUCUGAGAGAUUAAGA | 0.00269 ± 0.0022
UAGUGACACACCUUCUCUGAGAGAAAAACA | 0.0335 ± 0.014
UAGUCUGUCACCUUCUCUGAGAGAUGAACA | 0.123 ± 0.028
UAGUGUGUCACCUUCUCUGAGAGAUAUAACA | 0.188 ± 0.02
UAGUGACAGACCUACUCUGUGAGAUUAACA | 0.0199 ± 0.0049
UAGUGACAGUCCUUCUCUGAGAGAUUAUACA | 0.0468 ± 0.0077
UAGUGACAGACCUUCUCUGUGACAUUAACA | 0.0127 ± 0.0045
UAGUGAGUCUCCUUCUCUGAGAGAAUAACA | 0.0614 ± 0.015
UAGUCUGUCACCUUCACUGAGAGAUUAAGA | 0.044 ± 0.015
UAGUGACAGACCUUGACUGAGAGAUUUUGA | < 0.0001
UAGUCUGUCACCUUCUGAGAGAGAUUAACA | 0.0742 ± 0.0084
UAGUGACAGUGCUUCUCUCAGAGAUUUACA | 0.00586 ± 0.003
UAGUGACUCUACCUUCUCUGAGAGAUUAACA | 0.108 ± 0.0064
UAGUGACACAGCAUCUCUGAGAGAUUAACA | 0.0345 ± 0.0057
UAGUCUGUCACCUUCACUGAGAGAUUUUGA | 0.173 ± 0.06
UAGUGACAGACCUACUGUGAGAGAUUAACA | 0.0731 ± 0.016
UAGUGAGUCACCUUCAGUGAGAGAUUAACA | 0.139 ± 0.014
UAGUGAGUCACCUUCUCUGAGAGUUUUUGA | 0.105 ± 0.036
UAGUGAGUCACCUUCUCUGUCAGAUUAACA | 0.00721 ± 0.0036
UAGUCUGUCACCUACUCUGAGAGAUUAUCA | 0.149 ± 0.021
UAGUGAGUCACCUUCUCUGAGAGAUUUAGA | 0.0242 ± 0.014
UAGUGACAGUCCUUCUCUGAGACAUUAUCA | < 0.0001
UAGUGACAGUGCUUCUCUGAGAGAUUAGCA | 0.00333 ± 0.0027

Sequence | pre-steady-state target cleavage rate
UAGUGACAGUCCUUCUCUGAGAGAUUAAA | 0.0128 ± 0.0041
UAGUGUCUCACCUUCUCUGACAGAUUAACA | 0.0612 ± 0.0098
UAGUGACAGUCCUCUCUGAGAGAUUAACA | 0.0101 ± 0.0026
UAGUGACUCACGUUCUCUGAGAGAUUAAGA | 0.0335 ± 0.0083
UAGUGACAGAGCUUCUCUGACAGAUUAACA | 0.0115 ± 0.0042
UAGUGAGUCCCUUCUCUGAGAGAUUAACA | 0.191 ± 0.021
UAGUCUGUCACGUUCUCUGAGACAUUAACA | 0.00948 ± 0.0017
UAGUGUGUCACCAUCUCUGUGAGAUUAACA | 0.0443 ± 0.0052
UAGUGACUCACCUUCUGAGAGAGAUUAUGA | 0.00932 ± 0.0043
UAGUGACACACCUUCUGAGAGAGAUUUUGA | 0.00542 ± 0.0052
UAGUGACAGUCCUUCUCAGAGAGAUUAACA | 0.0226 ± 0.0049
UAGUGACUCACGUUCUCUCAGAGAUUAACA | 0.0479 ± 0.0085
UAGUGUGUCACGUUCUCUGAGAGAUUAUGA | 0.0291 ± 0.012
UAGUGACAGUGGAAGUCUGAGAGACUUAACA | < 0.0001
UAGUGUGUCACCAAGUCUGAGAGAUUAACA | 0.0703 ± 0.0064
UAGUGACACACCUUCUCUGAGAGUAUUAACA | 0.156 ± 0.017
UAGUGACUCACCUUGUCUGAGAGAUUAAGA | 0.00895 ± 0.0061
UAGUGACACAGCUUCUCUGAGAGAUAAACA | 0.0211 ± 0.0068
UAGUGACUCACCUCUCUCUGAGAGAUUAACA | 0.134 ± 0.012
UAGUGACAGUGCUUCUCUGAGAGUAAUUGA [g8:g19:cont:t1A] | < 0.0001
UAGUGUCUCACCUUCUCAGAGAGAUUAACA | 0.0883 ± 0.01
UAGUGACAGAGCCUUCUCUGAGAGAUUAACA | 0.0563 ± 0.0061
UAGUCUGUCACCUUCUGUGAGUGAUUAACA | 0.00564 ± 0.0034
UAGUGUGUCACCUACUCUGAGUGAUUAACA | 0.00652 ± 0.0051
UAGUCUGUUACCUUCUCUGAGAGAUUAACA | 0.145 ± 0.011
UAGUGACAGUCCUUCUCUGAGACAUUAAGA | < 0.0001
UAGUGACAGUCCUUCUCUGAGAGAUUAAACA | 0.0891 ± 0.015

Sequence | pre-steady-state target cleavage rate
UAGUCGUCACCUUCUCUGAGAGAUUAACA | 0.208 ± 0.014
UAGUGAGUCACCUUCUCUGAGAGAUUACCA | 0.251 ± 0.05
UAGUGAGUCACCUACUCUGAGAGAUAAACA | 0.085 ± 0.022
UAGUGACUCACCUUCCUCUGAGAGAUUAACA | 0.0478 ± 0.0085
UAGUCAGUCACCUUCUCUGAGUGAUUAACA | 0.00651 ± 0.0043
UAGUGACAGUGGAUCUCUGAGAAAUUAACA | < 0.0001
UAGUGUGUCACCUUCACUGAGAGAUUUACA | 0.107 ± 0.025
UAGUGAGUCACCUUCUCUGUGACAUUAACA | 0.0173 ± 0.0054
UAGUGACAGACCUUCUCUGAGAGAUUGAACA | 0.0765 ± 0.018
UAGUGUGUCACCUUCAGAGAGAGAUUAACA | 0.02 ± 0.01
UAGUGACUCAGCUUCUCUCAGAGAUUAACA | 0.0341 ± 0.0077
UAGUCUGUCACCUUCUCUGAGGAUUAACA | 0.0778 ± 0.025
UAGUGAGUGACCUUCUCUGAGAGAUUUACA | 0.12 ± 0.027
UAGUGACAGACCUUCUCUGAGAGAAUAACA | 0.0149 ± 0.0057
UAGUGACUCACCUUCUCUGUGAGUUUAACA | 0.0218 ± 0.0099
UAGUCUGACUCCUUCUCUGAGAGAUUAACA | 0.161 ± 0.0079
UAGUGACAGUGGAACUCUGAGACUAUAACA | 0.0129 ± 0.013
UAGUGACAGUGCUUCACUGAGACAUUAACA | 0.00422 ± 0.0028
UAGUGACAGUGCUUCUCUGAGAGAUUCAACA | 0.0213 ± 0.0067
UAGUGACAGACCUUCUCUGAGAGAUUAACC [g2:g21:cont:t1C] | 0.0879 ± 0.011
UAGUGACAGUCCUGCUCUGAGAGAUUAACA | 0.0774 ± 0.0063
UAGUCUGAGUCCUUCUCUGAGAGAUUAACA | 0.0823 ± 0.0084
UAGUCUGUCACCAUCUCAGAGAGAUUAACA | 0.102 ± 0.013
UAGUGACUCUCCUUCUCUGAGAGAUUAUGA | 0.00854 ± 0.004
UAGUGACAGUGCUUCUCUGAGAGUAUUAACA | 0.0314 ± 0.0056
UAGUGACAGUCCAUCUCUGACAGAUUAACA | 0.00443 ± 0.0018
